From the supplement of paper PMC10126150
Sequences with one replicate were seen in a single cluster, so their values are uncertain.
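Note: ATP exposure 15 min at 22 °C before imaging.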

Each sequence was assayed on ATP (assay: switch fluorescence ratio, 500 uM ATP over buffer (Cy3 cluster intensity, sum of 5 cycles each) (fold (ratio)); higher = stronger signal-on switching upon ATP binding; sequences stand for … in TCGTCGGCAGCGTCAGATGTGTATAAGAGACAGTTTTTTTTTTTTTTTTTTTTTTTTT…TC). Details: aptamer strand: ATP DNA aptamer (quencher-CACCTGGGGGAGTATTGCGGAGGAAGG + anchor), 100 nM annealed; ATP concentration: 500 uM; one replicate.
Outline: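 The fluorescence ratio divides summed target-cycle Cy3 intensity by summed buffer-cycle Cy3 intensity for each cluster and is averaged per switch-domain sequence. Cy3-labelled switching-strand clusters on a modified Illumina MiSeq flow-cell were annealed to 100 nM quencher-labelled ATP aptamer, then imaged in selection buffer and again after 15 min with 500 uM ATP at 22 °C. Five such cycles were run, with NaOH stripping and re-annealing between them, and clusters outside 100-1000 RFU were excluded.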
TAGGACTCAC was tested, and the switch fluorescence ratio was 1.18. TAGGACTCTT was tested, and the switch fluorescence ratio was 1.02. Sequence TAGGAGAGG has a switch fluorescence ratio of 1.01. Work on TAGGAGCACA yielded a switch fluorescence ratio of 1.17. For TAGGAGCAGA, the switch fluorescence ratio was 0.994. In the case of TAGGAGGG, the switch fluorescence ratio was 1.02. TAGGAGGTAG showed a switch fluorescence ratio of 0.996. For TAGGAGGTTG, the switch fluorescence ratio was 0.935. Work on TAGGATAACG yielded a switch fluorescence ratio of 1. TAGGATGTTA gave a switch fluorescence ratio of 1. In the case of TAGGCAATAA, the switch fluorescence ratio was 3.34. TAGGCCTGT showed a switch fluorescence ratio of 0.95. TAGGCGCACG gave a switch fluorescence ratio of 0.997. TAGGCGCCAA gave a switch fluorescence ratio of 1.01. With TAGGCGGC the switch fluorescence ratio was 0.998. Work on TAGGCTCTC yielded a switch fluorescence ratio of 1.01. Sequence TAGGCTTAGA has a switch fluorescence ratio of 0.997. With TAGGCTTAGT the switch fluorescence ratio was 1. With TAGGCTTTT the switch fluorescence ratio was 0.969. TAGGGAATCG was tested, and the switch fluorescence ratio was 0.994. With TAGGGAGTCG the switch fluorescence ratio was 0.982. In the case of TAGGGCCAT, the switch fluorescence ratio was 1.01. TAGGGGG gave a switch fluorescence ratio of 0.958. For TAGGGGGTA, the switch fluorescence ratio was 0.995. In the case of TAGGGGTTAC, the switch fluorescence ratio was 0.986. TAGGGGTTG gave a switch fluorescence ratio of 0.978. Work on TAGGGTAACG yielded a switch fluorescence ratio of 0.94. For TAGGGTCTTC, the switch fluorescence ratio was 1.02. With TAGGGTTTAC the switch fluorescence ratio was 0.916. TAGGTACCCT showed a switch fluorescence ratio of 1.02. With TAGGTACCGA the switch fluorescence ratio was 1.02. With TAGGTAGTT the switch fluorescence ratio was 0.995. TAGGTCAGCC gave a switch fluorescence ratio of 1.01. TAGGTCGCAC was tested, and the switch fluorescence ratio was 1.01. With TAGGTCGCGA the switch fluorescence ratio was 1.02. TAGGTCTTG showed a switch fluorescence ratio of 0.973. With TAGGTCTTGT the switch fluorescence ratio was 0.966. In the case of TAGGTGAAA, the switch fluorescence ratio was 0.954. For TAGGTGCATG, the switch fluorescence ratio was 1.04. For TAGGTGCTC, the switch fluorescence ratio was 1.04. Sequence TAGGTGGGTG has a switch fluorescence ratio of 0.973. TAGGTGTTAC was tested, and the switch fluorescence ratio was 1.04. For TAGGTTACTT, the switch fluorescence ratio was 1.01. Work on TAGGTTAGAA yielded a switch fluorescence ratio of 1.02. Work on TAGGTTGCCG yielded a switch fluorescence ratio of 1.01. With TAGGTTTTTA the switch fluorescence ratio was 1.03. For TAGTAACCGG, the switch fluorescence ratio was 1.01. Sequence TAGTAATTAC has a switch fluorescence ratio of 0.999. Sequence TAGTACGATA has a switch fluorescence ratio of 1.11. TAGTACGGTA gave a switch fluorescence ratio of 1.01. TAGTACTTCG showed a switch fluorescence ratio of 1.03. TAGTACTTTT gave a switch fluorescence ratio of 0.988. TAGTAGACGC was tested, and the switch fluorescence ratio was 0.985. In the case of TAGTAGCGAG, the switch fluorescence ratio was 0.955. In the case of TAGTAGTAAA, the switch fluorescence ratio was 0.997. TAGTAGTCGA was tested, and the switch fluorescence ratio was 1.03. TAGTATAAAT showed a switch fluorescence ratio of 0.997. With TAGTATGCTC the switch fluorescence ratio was 0.965. For TAGTCAGCTA, the switch fluorescence ratio was 1.02. With TAGTCAGGT the switch fluorescence ratio was 1. In the case of TAGTCATGG, the switch fluorescence ratio was 1.02. TAGTCCATCT showed a switch fluorescence ratio of 1.1. With TAGTCCCATG the switch fluorescence ratio was 1.05. Sequence TAGTCCGGGT has a switch fluorescence ratio of 0.987. TAGTCGACCC showed a switch fluorescence ratio of 1.04. With TAGTCGGATA the switch fluorescence ratio was 0.948. Work on TAGTCTAGTC yielded a switch fluorescence ratio of 0.975. For TAGTGAACGA, the switch fluorescence ratio was 1. TAGTGAACGT was tested, and the switch fluorescence ratio was 1.02. TAGTGCGGGT was tested, and the switch fluorescence ratio was 0.977. With TAGTGGCATC the switch fluorescence ratio was 1. Work on TAGTGGCTGT yielded a switch fluorescence ratio of 1. In the case of TAGTGGTCTT, the switch fluorescence ratio was 1. Sequence TAGTGTGACC has a switch fluorescence ratio of 1.02. TAGTGTGGTG gave a switch fluorescence ratio of 0.925. Sequence TAGTGTTATT has a switch fluorescence ratio of 0.998. Work on TAGTTAAACG yielded a switch fluorescence ratio of 1.01. TAGTTCGCGG was tested, and the switch fluorescence ratio was 0.972. Work on TAGTTCTGGT yielded a switch fluorescence ratio of 0.944. Sequence TAGTTGACGG has a switch fluorescence ratio of 0.91. In the case of TAGTTGTCTG, the switch fluorescence ratio was 0.995. With TAGTTTAATG the switch fluorescence ratio was 0.958. In the case of TAGTTTAGGA, the switch fluorescence ratio was 1. For TAGTTTTCGG, the switch fluorescence ratio was 0.962. With TAGTTTTTG the switch fluorescence ratio was 0.97. Sequence TATAAATTA has a switch fluorescence ratio of 0.974. TATAAATTCA showed a switch fluorescence ratio of 1.04. TATAACACAA gave a switch fluorescence ratio of 1.08. In the case of TATAACTTCT, the switch fluorescence ratio was 0.986. For TATAAGACT, the switch fluorescence ratio was 0.997. Work on TATAAGAGC yielded a switch fluorescence ratio of 0.982. Sequence TATAAGCAGA has a switch fluorescence ratio of 1.05. For TATAAGCGG, the switch fluorescence ratio was 1.03. Work on TATAAGCTAA yielded a switch fluorescence ratio of 1.03. TATAAGGTT gave a switch fluorescence ratio of 1.04. With TATAATTCGT the switch fluorescence ratio was 1. TATACACTTG showed a switch fluorescence ratio of 1.07. TATACGCGCT gave a switch fluorescence ratio of 0.991. Sequence TATAGACAAT has a switch fluorescence ratio of 1.02. TATAGAGAT gave a switch fluorescence ratio of 0.991.
